Experimental findings from patent publication US20170253656A1 are described below.

Numbering of substitutions follows the chain as printed.

B1: HC 1251_A06 (g)/LC 1275_C10 (wt) (antibody, human IgG1, kappa)
heavy: MQVQLVESGGGVVQPGRSLRLSCAASGFDFSSYGMHWVRQAPGKGLEWVAVIWDDGSDRYYADSVKGRFTISRDNSKNTLYLQMNSLRAEDTAVYYCARGGTRVLGAIHGTDVWGQGTTVTVSS[human IgG1 constant region omitted]
light: MDIQMTQSPSSLSASVGDRVTITCRASQGVSSWLAWYQQKPEKAPKSLIYSARYLQSGVPSRFSGSGSGTDFTLTISSLQPEDFATYYCQQYNLYPLTFGGGTKVEIKRTVAAPSVFIFPPSDEQLKSGTASVVCLLNNFYPREAKVQWKVDNALQSGNSQESVTEQDSKDSTYSLSSTLTLSKADYEKHKVYACEVTHQGLSSPVTKSFNRGEC
B2: HC 1251_B08 (g)/LC 1275_C10 (g) (antibody, human IgG1, kappa)
heavy: B1 heavy with D29N, S32D, D54Y, D58I, R59S, R103V, V104E, L105H, I108V, H109Y
light: B1 light with L12V, E42G, S47L
B3: HC 1251_B08 (g)/LC 1337_A10 (wt) (antibody, human IgG1, kappa)
heavy: B1 heavy with D29N, S32D, D54Y, D58I, R59S, R103V, V104E, L105H, I108V, H109Y
light: B1 light with V30I, L34V, S51G, A52S, R53S, Y54R, L94T
B4: HC 1251_A06 (g)/LC 1337_A09 (wt) (antibody, human IgG1, kappa)
heavy: B1 heavy
light: B1 light with V30I, S31G, S51A, R53D, Y54R, N93H, L94T
B5: HC 1251_B08 (g)/LC 1337_A09 (wt) (antibody, human IgG1, kappa)
heavy: B1 heavy with D29N, S32D, D54Y, D58I, R59S, R103V, V104E, L105H, I108V, H109Y
light: B1 light with V30I, S31G, S51A, R53D, Y54R, N93H, L94T
B6: HC 1251_B08 (g)/LC 1275_C10 (wt) (antibody, human IgG1, kappa)
heavy: B1 heavy with D29N, S32D, D54Y, D58I, R59S, R103V, V104E, L105H, I108V, H109Y
light: B1 light
B7: HC 1251_A06 (g)/LC 1337_A10 (g) (antibody, human IgG1, kappa)
heavy: B1 heavy
light: B1 light with L12V, V30I, L34V, E42G, S47L, S51G, A52S, R53S, Y54R, L94T
B8: HC 1251_A06 (g)/LC 1337_A10 (wt) (antibody, human IgG1, kappa)
heavy: B1 heavy
light: B1 light with V30I, L34V, S51G, A52S, R53S, Y54R, L94T
B9: HC 1251_A06 (g)/LC 1337_A09 (g) (antibody, human IgG1, kappa)
heavy: B1 heavy
light: B1 light with L12V, V30I, S31G, E42G, S47L, S51A, R53D, Y54R, N93H, L94T
B10: HC 1251_A06 (g)/LC 1337_A07 (wt) (antibody, human IgG1, kappa)
heavy: B1 heavy
light: B1 light with V30I, L34V, S51G, R53S, Y54R, N93H, L94T
B11: HC 1251_B08 (g)/LC 1337_A07 (g) (antibody, human IgG1, kappa)
heavy: B1 heavy with D29N, S32D, D54Y, D58I, R59S, R103V, V104E, L105H, I108V, H109Y
light: B1 light with L12V, V30I, L34V, E42G, S47L, S51G, R53S, Y54R, N93H, L94T
B12: HC 1251_B08 (g)/LC 1337_A09 (g) (antibody, human IgG1, kappa)
heavy: B1 heavy with D29N, S32D, D54Y, D58I, R59S, R103V, V104E, L105H, I108V, H109Y
light: B1 light with L12V, V30I, S31G, E42G, S47L, S51A, R53D, Y54R, N93H, L94T
B13: HC 1251_B08 (g)/LC 1337_A10 (g) (antibody, human IgG1, kappa)
heavy: B1 heavy with D29N, S32D, D54Y, D58I, R59S, R103V, V104E, L105H, I108V, H109Y
light: B1 light with L12V, V30I, L34V, E42G, S47L, S51G, A52S, R53S, Y54R, L94T
B14: HC 1251_A06 (g)/LC 1337_A07 (g) (antibody, human IgG1, kappa)
heavy: B1 heavy
light: B1 light with L12V, V30I, L34V, E42G, S47L, S51G, R53S, Y54R, N93H, L94T
B15: HC 1251_B08 (g)/LC 1337_A07 (wt) (antibody, human IgG1, kappa)
heavy: B1 heavy with D29N, S32D, D54Y, D58I, R59S, R103V, V104E, L105H, I108V, H109Y
light: B1 light with V30I, L34V, S51G, R53S, Y54R, N93H, L94T
B16: HC 1251_A06 (g)/LC 1275_C10 (g) (antibody, human IgG1, kappa)
heavy: B1 heavy
light: B1 light with L12V, E42G, S47L
B17: 1275-C10 light chain paired with HC 1251-A06 (SEQ ID NO: 310) (antibody)
heavy: MQVQLVESGGGVVQPGRSLRLSCAASGFDFSSYGMHWVRQAPDKGLEWVAVIWDDGSDRYYADSVKGRFTISRDNSKNTLYLQMNSLRAEDTAVYYCARGGTRVLGAIHGTDVWGQGTTVTVSS[human IgG1 constant region omitted]GGSHHHHHH
VL: DIQMTQSPSSLSASVGDRVTITCRASQGVSSWLAWYQQKPEKAPKSLIYSARYLQSGVPSRFSGSGSGTDFTLTISSLQPEDFATYYCQQYNLYPLTFGGGTKVEIK
B18: 1275-G02 light chain paired with HC 1251-F07 (SEQ ID NO: 311) (antibody, human IgG1)
heavy: B17 heavy with D29T, Y33H, D58N, R59E, Y60V, V104I, L105R, A107L, I108R, H109Y
VL: B17 VL with V29L, S30G, W32F, S50L, A51G, R52N, Y53L, S56I, L93A
B19: 1275-D10 light chain paired with HC 1251-A06 (SEQ ID NO: 310) (antibody, human IgG1)
heavy: B17 heavy
VL: B17 VL with S30F, S50N, R52T, Y53Q, N92Y, L93Y
B20: 1275-D01 light chain paired with HC 1251-A06 (SEQ ID NO: 310) (antibody, human IgG1)
heavy: B17 heavy
VL: B17 VL with V29I, S30G, S31R, S50G, A51R, R52S, Y53S, L93I

The target in this test is CD74 on CD74 positive SU-DHL-6 cells, P04233. Kind of test: cell-based or functional assay.
For the molecule B1, the 2ND ADC CELL KILL ACTIVITY IC50 turned out to be 10 pM.

Turning to B2, the 2ND ADC CELL KILL ACTIVITY IC50 was determined as 11 pM. Consider B3, for which the 2ND ADC CELL KILL ACTIVITY IC50 is 3 pM. As for B4, the 2ND ADC CELL KILL ACTIVITY IC50 came to 4 pM. Still for that read-out and setting: the same measure for B5: 25 pM; for B6: 18 pM; for B7: 5 pM. In the case of B8, the 2ND ADC CELL KILL ACTIVITY IC50 came to 2 pM. Take B9: the 2ND ADC CELL KILL ACTIVITY IC50 stood at 2 pM.

For the molecule B10, the 2ND ADC CELL KILL ACTIVITY IC50 worked out at 1 pM. In turn, B11 yielded a 2ND ADC CELL KILL ACTIVITY IC50 of 6 pM. With B12, the 2ND ADC CELL KILL ACTIVITY IC50 was found to be 10 pM. With B13, the 2ND ADC CELL KILL ACTIVITY IC50 turned out to be 7 pM. Same read-out and setting: as for B14, the figure is 5 pM; as for B15, 13 pM; as for B16, 7 pM.

As to B17, the 2nd ADC Cell Killing IC50 is 3.4 pM. On the same count and under the same terms, as for B18, the figure is 20 pM; as for B19, 7 pM. The molecule B20 had a 2nd ADC Cell Killing IC50 of 0.3 pM.
